# The supplement of paper PMC8728848
# This is one part of the list.
# B1: CVNH3T (Magnaporthe grisea) (protein)
# chain: GSHIGPYGNYAGNFSGSSRDICLDGARLRAECRRGDGGYSTSVIDLNRYLSNDNGHFRWVSGGGGGGGTATVTVQQGDTLRDIGRRFDCDFHEIARRNNIQNEDLIYPGQVLQVPTKGGSGGGAGNFWDSARDVRLVDGGKVLEAELRYSGGWNRSRIYLDEHIGNRNGELIHC
# Experiments:
# Assay in all cases: glycan array binding signal (z-score within array); higher = stronger binding
# Settings in all cases: glycan notation: IUPAC condensed, linker removed
# Gal6S(b1-4)Glc = target: Gal6S(b1-4)Glc
# Outline: (§1)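 From the Consortium for Functional Glycomics database, 3228 arrays were curated, keeping only those whose protein sequence was available. Binding is given as a within-array Z-score averaged across arrays sharing a protein sequence and across linkers. Negative Z-scores can be read as non-binding.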
# Gal6S(b1-4)Glc6S = target: Gal6S(b1-4)Glc6S
# Outline: as §1
# Gal6S(b1-4)GlcNAc = target: Gal6S(b1-4)GlcNAc
# Outline: as §1
# GalNAc(a1-3)Gal = target: GalNAc(a1-3)Gal
# Outline: as §1
# GalNAc(a1-3)GalNAc = target: GalNAc(a1-3)GalNAc
# Outline: as §1
# [1] = target: GalNAc(b1-3)Gal(a1-4)Gal(b1-4)GlcNAc
# Outline: as §1
# GalNAc(b1-4)GlcNAc = target: GalNAc(b1-4)GlcNAc
# Outline: as §1
# Glc(a1-4)Glc = target: Glc(a1-4)Glc
# Outline: as §1
# Glc(a1-6)Glc(a1-6)Glc = target: Glc(a1-6)Glc(a1-6)Glc
# Outline: as §1
# Glc(b1-4)Glc = target: Glc(b1-4)Glc
# Outline: as §1
# Glc(b1-6)Glc = target: Glc(b1-6)Glc
# Outline: as §1
# GlcA(b1-3)Gal = target: GlcA(b1-3)Gal
# Outline: as §1
# GlcA(b1-6)Gal = target: GlcA(b1-6)Gal
# Outline: as §1
# [2] = target: GlcNAc(a1-3)Gal(b1-4)GlcNAc
# Outline: as §1
# [3] = target: GlcNAc(a1-6)Gal(b1-4)GlcNAc
# Outline: as §1
# [4] = target: GlcNAc(b1-2)Gal(b1-3)GlcNAc
# Outline: as §1
# [5] = target: GlcNAc(b1-2)Man(a1-3)[GlcNAc(b1-2)Man(a1-6)]Man(b1-4)GlcNAc(b1-4)GlcNAc
# Outline: as §1
# GlcNAc(b1-3)Gal = target: GlcNAc(b1-3)Gal
# Outline: as §1
# [6] = target: GlcNAc(b1-3)Gal(b1-3)GalNAc
# Outline: as §1
# GlcNAc(b1-3)Gal(b1-4)Glc = target: GlcNAc(b1-3)Gal(b1-4)Glc
# Outline: as §1
# [7] = target: GlcNAc(b1-3)Gal(b1-4)GlcNAc
# Outline: as §1
# [8] = target: GlcNAc(b1-3)Gal(b1-4)GlcNAc(b1-3)Gal(b1-4)GlcNAc
# Outline: as §1
# GlcNAc(b1-3)GalNAc = target: GlcNAc(b1-3)GalNAc
# Outline: as §1
# [9] = target: GlcNAc(b1-3)[GlcNAc(b1-4)][GlcNAc(b1-6)]GlcNAc
# Outline: as §1
# [10] = target: GlcNAc(b1-3)[GlcNAc(b1-6)]Gal(b1-4)GlcNAc
# Outline: as §1
# [11] = target: GlcNAc(b1-3)[GlcNAc(b1-6)]GlcNAc
# Outline: as §1
# [12] = target: GlcNAc(b1-4)Gal(b1-4)GlcNAc
# Outline: as §1
# [13] = target: GlcNAc(b1-4)GlcNAc(b1-4)GlcNAc
# Outline: as §1
# [14] = target: GlcNAc(b1-4)GlcNAc(b1-4)GlcNAc(b1-4)GlcNAc(b1-4)GlcNAc
# Outline: as §1
# [15] = target: GlcNAc(b1-4)GlcNAc(b1-4)GlcNAc(b1-4)GlcNAc(b1-4)GlcNAc(b1-4)GlcNAc
# Outline: as §1
# [16] = target: GlcNAc(b1-4)[GlcNAc(b1-6)]GalNAc
# Outline: as §1
# [17] = target: GlcNAc(b1-6)Gal(b1-4)GlcNAc
# Outline: as §1
# GlcNAc(b1-6)GalNAc = target: GlcNAc(b1-6)GalNAc
# Outline: as §1
# Kdn(a2-3)Gal(b1-3)GlcNAc = target: Kdn(a2-3)Gal(b1-3)GlcNAc
# Outline: as §1
# Kdn(a2-3)Gal(b1-4)GlcNAc = target: Kdn(a2-3)Gal(b1-4)GlcNAc
# Outline: as §1
# [18] = target: Man(a1-2)Man(a1-2)Man(a1-3)Man
# Outline: as §1
# [19] = target: Man(a1-2)Man(a1-2)Man(a1-3)[Man(a1-2)Man(a1-3)[Man(a1-2)Man(a1-6)]Man(a1-6)]Man(b1-4)GlcNAc(b1-4)GlcNAc
# Outline: as §1
# [20] = target: Man(a1-2)Man(a1-2)Man(a1-3)[Man(a1-2)Man(a1-6)[Man(a1-3)]Man(a1-6)]Man(b1-4)GlcNAc(b1-4)GlcNAc
# Outline: as §1
# [21] = target: Man(a1-2)Man(a1-2)Man(a1-6)[Man(a1-3)]Man
# Outline: as §1
# Man(a1-2)Man(a1-3)Man = target: Man(a1-2)Man(a1-3)Man
# Outline: as §1
# [22] = target: Man(a1-2)Man(a1-3)[Man(a1-2)Man(a1-6)]Man
# Outline: as §1
# [23] = target: Man(a1-2)Man(a1-3)[Man(a1-3)[Man(a1-6)]Man(a1-6)]Man(b1-4)GlcNAc(b1-4)GlcNAc
# Outline: as §1
# [24] = target: Man(a1-2)Man(a1-3)[Man(a1-6)]Man(a1-6)[Man(a1-2)Man(a1-3)]Man(b1-4)GlcNAc(b1-4)GlcNAc
# Outline: as §1
# Man(a1-3)[Man(a1-6)]Man = target: Man(a1-3)[Man(a1-6)]Man
# Outline: as §1
# [25] = target: Man(a1-3)[Man(a1-6)]Man(a1-6)[Man(a1-3)]Man(b1-4)GlcNAc(b1-4)GlcNAc
# Outline: as §1
binder,measurement,setting,value
B1,glycan array binding signal (z-score),Gal6S(b1-4)Glc,-0.213
same,glycan array binding signal (z-score),Gal6S(b1-4)Glc6S,-0.226
same,glycan array binding signal (z-score),Gal6S(b1-4)GlcNAc,-0.213
same,glycan array binding signal (z-score),GalNAc(a1-3)Gal,-0.239
same,glycan array binding signal (z-score),GalNAc(a1-3)GalNAc,-0.223
same,glycan array binding signal (z-score),[1],3.84
same,glycan array binding signal (z-score),GalNAc(b1-4)GlcNAc,-0.21
same,glycan array binding signal (z-score),Glc(a1-4)Glc,-0.225
same,glycan array binding signal (z-score),Glc(a1-6)Glc(a1-6)Glc,-0.195
same,glycan array binding signal (z-score),Glc(b1-4)Glc,-0.234
same,glycan array binding signal (z-score),Glc(b1-6)Glc,-0.242
same,glycan array binding signal (z-score),GlcA(b1-3)Gal,-0.235
same,glycan array binding signal (z-score),GlcA(b1-6)Gal,-0.236
same,glycan array binding signal (z-score),[2],-0.239
same,glycan array binding signal (z-score),[3],-0.237
same,glycan array binding signal (z-score),[4],-0.233
same,glycan array binding signal (z-score),[5],-0.25
same,glycan array binding signal (z-score),GlcNAc(b1-3)Gal,-0.244
same,glycan array binding signal (z-score),[6],-0.211
same,glycan array binding signal (z-score),GlcNAc(b1-3)Gal(b1-4)Glc,-0.242
same,glycan array binding signal (z-score),[7],-0.229
same,glycan array binding signal (z-score),[8],-0.236
same,glycan array binding signal (z-score),GlcNAc(b1-3)GalNAc,-0.206
same,glycan array binding signal (z-score),[9],-0.227
same,glycan array binding signal (z-score),[10],-0.229
same,glycan array binding signal (z-score),[11],-0.222
same,glycan array binding signal (z-score),[12],-0.22
same,glycan array binding signal (z-score),[13],-0.233
same,glycan array binding signal (z-score),[14],5.39
same,glycan array binding signal (z-score),[15],3.87
same,glycan array binding signal (z-score),[16],-0.223
same,glycan array binding signal (z-score),[17],-0.225
same,glycan array binding signal (z-score),GlcNAc(b1-6)GalNAc,-0.239
same,glycan array binding signal (z-score),Kdn(a2-3)Gal(b1-3)GlcNAc,-0.217
same,glycan array binding signal (z-score),Kdn(a2-3)Gal(b1-4)GlcNAc,-0.232
same,glycan array binding signal (z-score),[18],-0.17
same,glycan array binding signal (z-score),[19],-0.232
same,glycan array binding signal (z-score),[20],-0.201
same,glycan array binding signal (z-score),[21],-0.17
same,glycan array binding signal (z-score),Man(a1-2)Man(a1-3)Man,-0.215
same,glycan array binding signal (z-score),[22],-0.22
same,glycan array binding signal (z-score),[23],-0.193
same,glycan array binding signal (z-score),[24],-0.222
same,glycan array binding signal (z-score),Man(a1-3)[Man(a1-6)]Man,-0.192
same,glycan array binding signal (z-score),[25],-0.23
